Reference: the supplement of paper PMC11417369
This is one part of the list.

System: PF3D7_0420300 AP2 domain 1 (GST-tagged)
Assay: gcPBM binding intensity (ln(normalized median fluorescence intensity)); higher = stronger DNA binding
In short: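 DNA-binding domains from P. falciparum, fused to GST and produced in E. coli, were put on an Agilent 4 × 180k double-stranded probe array for 1 h in 1× PBS holding 1% milk, 0.2 mg/ml BSA, 0.5% salmon testes DNA and 0.03% Triton X-100. Probes were primer-extended, 36 bp long and drawn from intergenic genomic regions, with negative controls included. After Alexa488 anti-GST antibody detection and a 488 nm scan, binding intensity was set as the highest Masliner-normalised natural-log median intensity across replicate spots of either probe orientation.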

Row | Sequence | gcPBM binding intensity (ln)
1 | TCCTTATTTCATATTTTTAAATAATACAAAAAAAAA [CACACA_negctrl_site773] | 8.75
2 | TTCTATTTATATGTGGGTACTAATTTTTTTTCTTTT [XGTACX_site7104] | 9.58
3 | CTTAAATTAATTTGGGTGCATATATTTGTACACATT [GTGCAC_site9948] | 9.22
4 | TGAATAAAATATTATACACACATATGTATATAACAT [CACACA_site974] | 9.31
5 | TTAATTTTTTTTTAAACACACATTTTTTTATTTAAG [CACACA_site2738] | 9.17
6 | TATTAATTTTTTTTTTTTTTTTTTTTTTTTTTTTTT [CACACA_negctrl_site1329] | 9.27
7 | GTTATAAATAATAAATAAATAATCAAATGAAGAATG [CACACA_negctrl_site653] | 9.4
8 | TATATAAACCCACCTACACACACAACGTAAATGCAT [CACACA_site8702] | 9.89
9 | ATTATTATATTCAAATGTACTTAATAAACATTTTAA [XGTACX_site3023] | 8.88
10 | TTTATCTAAATATGTGTGCACTCGTTAATTTTTTTT | 9.45
11 | TAAAGAATATTATAAACACACACTTTATAAAGAATT [CACACA_site114] | 9.61
12 | TGTTGATTTATCCTGTGTACGGATATATATCTTTCA [XGTACX_site7826] | 9.27
13 | TATATAAAGAAACACACACACACCTTATAATTATTA [CACACA_site4062] | 10
14 | GTAATTATACATATTACACACTCTCTTGATCTTTTT [CACACA_site7756] | 9.51
15 | AGAAAAAAATAATCATCACACACGGAGAATGTCCAA [CACACA_site2314] | 9.72
16 | GAAAATAACTAAAATTGTACAAAGAAACATATATTT [XGTACX_site6484] | 9.35
17 | GATATTCATTATATATGTACATATATGTAATATATA [XGTACX_site2210] | 9.2
18 | TATATATATCTGTATACACACATACAAATATGTAAA [CACACA_site5950] | 9.39
19 | TATTAAAGCACCCATGCACACACACTAAGGAAAAGA [CACACA_site7961] | 10

Row | Sequence | gcPBM binding intensity (ln)
20 | ATATATTTTTTTTTTTCACACATTAGGATTCATATA [CACACA_site5758] | 9.39
21 | ATCATATGTATGGTGGTGCATTATGCATGAATTTTA [GTGCAC_site9798] | 9.2
22 | TAATAATATATAAAAAGTACATAACAAGATATGAAA [XGTACX_site4921] | 9.45
23 | GAGAGGTATCAAAAATGTACACATATATATATGTAT [XGTACX_site5611] | 9.2
24 | TTTTTTCTTTATTATGGTACGTATAAAAAAATTATA [XGTACX_site3433] | 9.02
25 | ATATATAATATATATTGTACAGGTATGTCTATAAAT [XGTACX_site2243] | 9.37
26 | TTTTTATCAACAAATAATACCATAACTCATATTTAT [CACACA_negctrl_site740] | 9.1
27 | ATTATTCCATATTATTGTACTTTAATTTTTTAAACC [XGTACX_site2960] | 9.29
28 | TATAAAATTTTTAAAAGTACATATTTTACATAATAC [XGTACX_site2193] | 9.1
29 | ACTAATAAAGGTGTAATACACACTATAAAAAGGAAT [CACACA_site1124] | 9.61
30 | AAAATGTTATTGGAAAGTACAAAAAAAATTATATAA [XGTACX_site4074] | 9.23
31 | TTAATATATATATATATATATATATTTTTATTTTTT [CACACA_negctrl_site763] | 9
32 | TGTATTAACAAAAAGGTGCGGATATATATAAAAAAT [GTGCAC_site9473] | 9.61
33 | ATAAAACGTACAATGGTGCATATAAATAATATATAT [GTGCAC_site9960] | 9.47
34 | CATATATAGATATATACACACATATATAAATAAATA [CACACA_site6759] | 9.64
35 | TATGTATATTCTTTCAGTACACATAATGTTGTCATA [XGTACX_site8845] | 9.27
36 | TTATATATATATATATATATATATATATATATAAAT [GTGCAC_negctrl_site126] | 8.83
37 | CATTATGTACAAAAAGTGCAATATATATTAACACTG | 9.16
38 | AACAAAATAAGAAAACGTACAAATGTTTCAAATTCT [XGTACX_site1544] | 9.38

Row | Sequence | gcPBM binding intensity (ln)
39 | TTTTCAAAGATATATACACACATGCATATTACGGTG [CACACA_site6505] | 9.43
40 | TTAATAAATATCAATACACACACACTAATGTGAATA [CACACA_site9254] | 9.83
41 | TTTTTGAGTGCACATACACACAGACATACATTTAAA [CACACA_site5813] | 9.48
42 | GGATTCAAAAAAAAAAATAAAAGTAAATAATAAATA [TGCATGCA_negctrl_site348] | 9.19
43 | TAAATATATTTATACACACACACCAAAGCAATAGAT [CACACA_site7393] | 10.3
44 | TTCAATATACATATGTGTACTAAAATAAATAGAAAA [XGTACX_site5708] | 9.35
45 | ATTACAACATTTTATACACACGTGATTATTAATTTT [CACACA_site5581] | 9.56
46 | TTTATGAAGTAAAAATATAAATTCACAAAGTTAAAA [CACACA_negctrl_site1476] | 9.03
47 | AAGAACAGAACGTACACACACATATTTATATTTATA [CACACA_site7594] | 9.82
48 | TATATTTCAGGGGGGAGTACAAATTTTTTTATATAA [XGTACX_site1600] | 10.1
49 | ATTTGTAATATTAAATGTACAGGTAAGAAATATCAG [XGTACX_site1562] | 9.32
50 | TAAGGAAAAAAAATATGTACTTATAGTTCCTTCTTT [XGTACX_site2202] | 9.08
51 | TTATAAATGAATAAATGTACAAAATATATATATATA [XGTACX_site8829] | 9.22
52 | CATAACATAAAATAGGTGCACAAAAATTGTAATTGA | 9.58
53 | TTCAGTGTATACATATGTACATATATATATATATAT [XGTACX_site1621] | 9.26
54 | ATTTTTATTTGTTACGCATGCATAAAAGTGCATACT [TGCATGCA_site547] | 9.27
55 | TTGTAATATATGTATTGTACGCATATAACAATTATT [XGTACX_site3652] | 9.16
56 | AAAATACATAAATGTTCACACATTAAAAAGCAGAAG [CACACA_site5346] | 9.47
57 | TATGTCAGATGAAAGGGTACATAATATAATATATTT [XGTACX_site8062] | 9.08
